Laboratory results: article PMC3690481, “OTULIN Antagonizes LUBAC Signaling by Specifically Hydrolyzing Met1-Linked Polyubiquitin” (Cell, 2013)
Where “and” joins values, the source holds several entries; their conditions need not be identical. Equal values may be shown once. Blank lines part the entries; values can stand above or below the binder they belong to.

Target: T1, FlAsH-tagged Met1-diUb (UniProt P0CG48 fragment; P0CG48 fragment, Lumio Green (FlAsH) on the C-terminal WCCPGCC motif)
T1 construct: ubiquitin, distal moiety, residues 1-76, joined by Gly76 in a peptide bond to Met1 of the proximal moiety; ubiquitin, proximal moiety; a C-terminal WCCPGCC motif replaces aa 72-76, so that residues 1-71 are left; Construct described in Ye et al., 2011; Chain: Ub(1-76)-Ub(1-71)-WCCPGCC; also called FlAsH-tagged Met1-diUb WT; Met1-linked diUb; source: expressed from pET17 plasmid, purified as …
Assay: fluorescence polarisation; FlAsH-tagged diUb fixed (10 μl of 100 nM plus 10 μl protein), OTULIN C129A variants serially diluted; 20 mM Tris pH 7.4, 100 mM NaCl, 5 mM β-mercaptoethanol, 0.1 mg/ml BSA; one-site binding model; triplicate
Conditions: both partners purified

binding result: binds
B3: OTULIN C129A W96A (enzyme)
chain: not shown
notes: source: E. coli Rosetta2 (DE3) pLacI, purified (Ni2+ resin, 3C protease, SEC)

binding result: binds
B4: OTULIN C129A L259E (enzyme)
chain: not shown
notes: as for B3

Further lines, the binder ahead of its results:

B1: OTULIN ([…]) C129A (enzyme)
chain: not shown
notes: also called full-length OTULIN C129A; OTULIN C129A; source: E. coli Rosetta2 (DE3) pLacI, purified (Ni2+ resin, 3C protease, SEC)
Kd: 178 nM and < 112 nM

B2: OTULIN C129A E314R (enzyme)
chain: not shown
notes: as for B3
binding result: binds
